The campaign covered roughly 350,000 compounds. About 260 (0.074%) were called active. This list was built around the results that the source calls inconclusive (neither active nor inactive); the mix of calls is not that of the screen. Calls follow the shape of the dose curve; as a rule, active = well fitted inhibition curve with a large enough effect; inconclusive = small, poorly fitted or top-dose-only effect; inactive = no such curve, though single readings can be large or run the other way. Potencies of inconclusive entries are doubtful fits and often do not repeat.
Target: Ferritin light chain (Equus caballus) (UniProt P02791)
Test: qHTS Assay for Identification of Novel General Anesthetics; also: nearly all actives have a fitted effect of over 20% in size
Conditions: apoferritin/1-aminoanthracene competitive binding, fluorescence; series mostly up to 77.5 µM
Outline: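 Probe: 1-aminoanthracene (50% saturated, PBS). Protein: horse-spleen apoferritin, 10 uM. Incubation: 10 min, room temperature. Detection: 380 nm excitation, 535 nm emission. Analysis: normalized response, four-parameter Hill.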
Potency is read from the fitted curve at half-maximal effect; tags tell the direction and shape of the fitted curve.

UniProt P02791, sequence (P02791 whole entry, looked up): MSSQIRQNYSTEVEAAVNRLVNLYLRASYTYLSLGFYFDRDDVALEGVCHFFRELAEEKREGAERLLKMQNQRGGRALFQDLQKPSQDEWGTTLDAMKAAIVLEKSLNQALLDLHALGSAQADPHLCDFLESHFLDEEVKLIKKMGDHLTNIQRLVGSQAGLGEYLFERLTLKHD

Row | Structure (SMILES) | Potency
1 | NC(=O)CC(NC(=O)c1ccc(Br)cc1)c1ccc(N2CCN(c3ccccc3)CC2)c([N+](=O)[O-])c1 (centres undefined) | inconclusive: 25.1 µM [inhibitor, partial curve]
2 | CC(=O)c1ccc(NC(=O)CSc2cn(CC(=O)N3CCCCC3)c3ccccc23)cc1 | inconclusive: 17.8 µM [inhibitor, partial curve]
3 | Cc1ccccc1NCC(=O)N/N=C\c1ccc2c(c1)OCO2 | inconclusive: 50.1 µM [inhibitor, single point]
4 | OC1CCCN(c2ncnc3c2nnn3Cc2c(F)cccc2Cl)C1 (centres undefined) | inconclusive: 25.1 µM [inhibitor, partial curve]
5 | N#CC(C(=O)NC1CCCCC1)c1nc2ccccc2nc1N1CCN(c2ccccc2F)CC1 (centres undefined) | inconclusive: 39.8 µM [inhibitor, single point]
6 | O=C(NC(NC(=S)Nc1ccccc1C(=O)O)C(Cl)(Cl)Cl)c1ccco1 (centres undefined) | inactive
7 | COC(=O)c1ccccc1NC1=C/C(=N\S(=O)(=O)c2cccs2)c2ccccc2C1=O | inconclusive: 15.8 µM [inhibitor, partial curve]
8 | CC(=O)c1cccc(OCc2cc(C(=O)N3CC4C[C@@H]5CC3C[C@H](C4)C5)no2)c1 | inconclusive: 22.4 µM [inhibitor, partial curve]
9 | CC(C)NC(=S)Nc1ccc(Oc2ccccc2)cc1 | inconclusive: 25.1 µM [inhibitor, partial curve]
10 | CCc1nc(-c2cc(S(=O)(=O)N3CCN(c4ccc(F)cc4)CC3)ccc2OC)no1 | inconclusive: 35.5 µM [inhibitor, partial curve]
11 | O=C(CC(O)(c1ccccc1)C(F)(F)C(F)F)c1cccs1 (centres undefined) | inconclusive: 17.8 µM [inhibitor, partial curve]
12 | COc1ccc(NC(=O)COC(=O)/C=C/c2ccccc2[N+](=O)[O-])cc1OC | inconclusive: 50.1 µM [inhibitor, single point]
13 | Cc1ccc(N2C(=O)C3CCCN3C2=S)cc1Cl (centres undefined) | inconclusive: 56.2 µM [inhibitor, single point]
14 | COc1cc2c(cc1NC(=O)CC1SC(N3CCCC3)=NC1=O)oc1ccccc12 (centres undefined) | inconclusive: 14.1 µM [inhibitor, partial curve]
15 | O=S(=O)(Nc1ccc(Br)cc1)c1cccc2nonc12 | inconclusive: 28.2 µM [inhibitor, partial curve]
16 | Cn1c(=O)c(=O)n(C)c2cc(S(=O)(=O)N3CCN(c4ccccc4F)CC3)ccc21 | inconclusive: 2 µM [inhibitor, partial curve]
17 | Oc1ccc(Br)cc1Cn1nnc2ccccc21 | inconclusive: 50.1 µM [inhibitor, partial curve]
18 | O=C(CSc1nc2c(c(=O)[nH]1)CN(Cc1ccc(F)cc1)CC2)Nc1ccc(F)cc1 | inactive
19 | Cc1cccc(C(=O)N2CCN(c3ccc([N+](=O)[O-])c(NCc4ccco4)c3)CC2)c1 | inconclusive: 31.6 µM [inhibitor, partial curve, poor fit]
20 | C=CCSc1nnc2nc3c(nn12)c1cc(C)ccc1n3CC=C | inconclusive: 4.47 µM [inhibitor, full curve, poor fit]
21 | CC(C)(C)CC(=O)NCc1cccs1 | inconclusive: 28.2 µM [inhibitor, partial curve]
22 | c1ccc(CSc2ncn(-c3ccccc3)n2)cc1 | inconclusive: 22.4 µM [inhibitor, partial curve]

Row | Structure (SMILES) | Potency
23 | COc1cccc(-c2cc(C(F)(F)F)nc(-n3nc(C)c(Br)c3C)n2)c1 | inconclusive: 0.794 µM [inhibitor, full curve, poor fit]
24 | CC(Cc1cccs1)NC(=O)Nc1ccccc1 (centres undefined) | inactive
25 | O/N=C1\CCCc2ccc(Cl)cc21 | inconclusive: 8.91 µM [inhibitor, partial curve]
26 | CC(C)(C)NC(=O)NC(=O)COC(=O)Cc1c(Cl)cccc1Cl | inconclusive: 31.6 µM [inhibitor, partial curve]
27 | Oc1c(C(Nc2nccs2)c2ccc(C(F)(F)F)cc2)ccc2cccnc12 (centres undefined) | inconclusive: 28.2 µM [inhibitor, single point]
28 | COC(=O)c1c(SCC(=O)Nc2cccc(C(F)(F)F)c2)[nH]c2ccccc2c1=O | inactive
29 | O=C(/C=C/c1ccco1)Nc1ccc(CN2CCOCC2)cc1 | inactive
30 | C=CCn1c(SCC(=O)NC(=O)c2cccc([N+](=O)[O-])c2)nnc1-c1ccccc1F | inconclusive: 17.8 µM [inhibitor, partial curve]
31 | COc1ccc(C2CC(c3ccccc3)=NN2C(=O)COC(=O)c2nc3nccc(C)n3n2)cc1 (centres undefined) | inconclusive: 17.8 µM [inhibitor, partial curve]
32 | COc1ccc(/C=C2\SC(=S)N(CCC(=O)Nc3ccccc3C(=O)O)C2=O)cc1 | inactive
33 | O=C(COC(=O)CCCN1C(=O)c2cccc3cccc(c23)C1=O)Nc1cccc(C(F)(F)F)c1 | inactive
34 | O=C(NC(NNc1ccc([N+](=O)[O-])cc1)(C(F)(F)F)C(F)(F)F)c1ccccc1Cl | inconclusive: 17.8 µM [inhibitor, partial curve]
35 | COc1ccc(N(C(=O)C2COc3ccccc3O2)C(C(=O)NC2CCCCC2)c2ccccc2)cc1OC (centres undefined) | inactive
36 | CC(=O)Nc1nonc1-c1nnc(SCC(=O)Nc2ccccc2Cl)n1C | inactive
37 | CCOc1ccc(CNC(=O)C2CCN(C3=NS(=O)(=O)C(c4ccc(C)cc4)=C3CC)CC2)cc1 | inconclusive: 25.1 µM [inhibitor, single point]
38 | Cc1ccc(S(=O)(=O)N(CC(=O)Nc2ccc(Cl)c([N+](=O)[O-])c2)C2CCCCC2)cc1 | inconclusive: 4.47 µM [inhibitor, full curve, poor fit]
39 | COc1ccccc1N1CSC2=C(C#N)C(c3ccc(SC)cc3)CC(=O)N2C1 (centres undefined) | inconclusive: 39.8 µM [inhibitor, partial curve]
40 | COc1ccc(Oc2c(C=O)c3ccccc3n2C)cc1 | inconclusive: 35.5 µM [inhibitor, single point]
41 | COc1ccc(NS(=O)(=O)CC23CCC(CC2=O)C3(C)C)cc1 (centres undefined) | inconclusive: 14.1 µM [inhibitor, partial curve]
42 | c1ccc(Nc2nc(CSc3ncn[nH]3)cs2)cc1 | inconclusive: 50.1 µM [inhibitor, single point]
43 | CCOn1c(=O)c(C)[n+]([O-])c2ccccc21 | inactive
44 | COc1cccc(N2C(=O)CC(N3CCN(c4ccc([N+](=O)[O-])cc4)CC3)C2=O)c1 (centres undefined) | inconclusive: 56.2 µM [inhibitor, single point]

Row | Structure (SMILES) | Potency
45 | COc1ccc(C2SCCN2S(=O)(=O)c2ccc(NC(C)=O)cc2)cc1 (centres undefined) | inconclusive: 50.1 µM [inhibitor, single point]
46 | CC1=C(C(=O)OC2CCCCCCC2)C(c2ccc(O)cc2)NC(=O)N1 (centres undefined) | inconclusive: 35.5 µM [inhibitor, partial curve]
47 | COc1ccccc1OS(=O)(=O)c1ccc(NC(C)=O)cc1 | inactive
48 | O=C(CCc1ccccc1)Nc1ccc(F)cc1F | inconclusive: 31.6 µM [inhibitor, single point]
49 | COc1ccc(OC)c(NC(=O)Cn2c(=O)oc3cc(S(=O)(=O)NCc4ccccc4)ccc32)c1 | inactive
50 | Cc1cc(=O)oc2ccc(OCC(=O)N(Cc3ccc(F)cc3)Cc3ccco3)cc12 | inconclusive: 22.4 µM [inhibitor, partial curve]
51 | CC(C)(C)NC(=O)NC(=O)COC(=O)CCC1CCCCC1 | inconclusive: 5.62 µM [inhibitor, full curve]
52 | CC(OC(=O)c1ccc2ccccc2n1)C(=O)c1ccccc1 (centres undefined) | inconclusive: 25.1 µM [inhibitor, partial curve]
53 | Cc1cc2oc(C(=O)N(Cc3ccccc3)C3CCS(=O)(=O)C3)cc(=O)c2cc1C (centres undefined) | inconclusive: 28.2 µM [inhibitor, single point]
54 | Cc1ccsc1/C=C1/SC(=O)N(CC(=O)N2CCOCC2)C1=O | inconclusive: 31.6 µM [inhibitor, partial curve]
55 | COc1ccc(-n2c(SCC(=O)NCC3CCCO3)nc3ccccc32)cc1 (centres undefined) | inactive
56 | Cc1cccc(-c2cc(C(=O)Nc3ccncc3)c3ccccc3n2)c1 | inconclusive: 15.8 µM [inhibitor, partial curve]
57 | Cc1ccc(OCc2nnc(N)s2)cc1 | inconclusive: 31.6 µM [inhibitor, partial curve]
58 | CCC(Cc1ccccc1)NC(=O)c1csc2c1CCCCC2 (centres undefined) | inactive
59 | O=C(NNc1ccccc1[N+](=O)[O-])Nc1ccc(Cl)c(Cl)c1 | inconclusive: 44.7 µM [inhibitor, single point]
60 | CCC(=O)OCC(=O)[C@@]1(OC(=O)CC)[C@@H](C)C[C@H]2[C@@H]3CCC4=CC(=O)C=C[C@]4(C)[C@@]3(F)[C@@H](O)C[C@@]21C | inconclusive: 25.1 µM [inhibitor, single point]
61 | COc1cc(NC(=O)CCCSc2nc(-c3ccco3)cc(C(F)(F)F)n2)cc(OC)c1OC | inconclusive: 35.5 µM [inhibitor, single point]
62 | Cc1ccccc1OCC(=O)NC(=S)Nc1ccc(S(=O)(=O)NC2CCCCC2)cc1 | inconclusive: 28.2 µM [inhibitor, partial curve]
63 | CCCc1ccc(OCc2ccc(C(=O)N/N=C/c3cccnc3)o2)cc1 | inconclusive: 28.2 µM [inhibitor, partial curve]
64 | CCOC(=O)c1c(Nc2ccccc2)nnc(-c2ccccc2)c1-c1ccccc1 | inconclusive: 22.4 µM [inhibitor, partial curve]
